This test has as its target T1, recombinant human CD229 (extracellular domain) (human, UniProt Q9HBG7 48-454).
T1 construct: extracellular domain; Bought protein; also called recombinant CD229; recombinant extracellular domain of CD229
T1 sequence (looked up): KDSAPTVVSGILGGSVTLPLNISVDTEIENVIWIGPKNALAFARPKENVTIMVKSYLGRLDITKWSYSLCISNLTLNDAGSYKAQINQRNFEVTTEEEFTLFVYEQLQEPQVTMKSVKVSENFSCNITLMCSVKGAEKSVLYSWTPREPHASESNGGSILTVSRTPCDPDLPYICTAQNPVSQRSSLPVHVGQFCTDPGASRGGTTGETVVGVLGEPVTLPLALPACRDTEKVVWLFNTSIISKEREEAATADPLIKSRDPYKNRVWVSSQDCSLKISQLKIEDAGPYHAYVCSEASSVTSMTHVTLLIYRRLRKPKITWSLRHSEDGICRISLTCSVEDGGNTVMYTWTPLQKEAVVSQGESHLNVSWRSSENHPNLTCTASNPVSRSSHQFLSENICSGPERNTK
The experiment in a line: BLI; biotinylated scFv on streptavidin biosensor, recombinant CD229 extracellular domain in solution. On the procedure:
(FIG. 3A) Schema of construct used for production of biotinylated 2D3 scFv variants including C-terminal AviTag to facilitate in vivo biotinylation. (FIG. 3B) Schema of biolayer interferometry (BLI) setup used for kinetic characterization of CD229 binding. Biotinylated 2D3 variants were immobilized on streptavidin biosensors and the recombinant extracellular domain of CD229 was added in the following concentrations: 2 μM, 1 μM, 0.5 μM, 0.25 μM. (FIG. 3C) Sensorgrams of 2D3 variants were determined using an Octet K2 (Sartorius). Plots show representative result of two independent experiments. (FIG. 3D) Correlation between rate and equilibrium constants of 2D3 variant scFvs as determined by BLI.
Streptavidin (SA) biosensensors (ForteBio) were hydrated in 1× Octet® Kinetics Buffer (Sartorius) for at least 10 minutes. SA biosensors were loaded using the Octet K2 (Sartorius). A baseline in Octet Kinetics Buffer was collected for 1 minute. […] SA biosensors loaded with 2 nm of biotinylated scFv and blocked with biocytin went through a 60-second baseline read in kinetics buffer, 50-second association in 2, 1, 0.5, and 0.25 μM recombinant human CD229 (R&D Systems) in kinetics buffer, and finally 60-second dissociation in kinetics buffer. […] Data was analyzed using Octet® K2 System Data Analysis 9.0 software.

B1: 2D3 scFv (wild type) (scFv)
scFv: QVQLVESGGGLVQPGRSLRLSCAASGFTFDDYAMHWVRQAPGKGLEWVSGISWNSGSIGYADSAKGRFTISRDNSKNTLYLQMNSLRAEDTAVYYCAKRGNSNSFDYWGQGTLVTVSSLEGGGGSGGGGSGGGAS[sequence of about 100 residues omitted]
modifications: BLI form: biotinylated in vivo on a C-terminal AviTag. The tag is not in the letters.
notes: The FLAG-tagged scFv from pSANG10 was used in the TRF assays; The AviTag form from pSANG10-Avi, biotinylated in vivo, was used in BLI; Both forms are kept as one molecule here; also called WT (2D3); parental 2D3; not shown: C-terminal tags of the pSANG10 / pSANG10-Avi constructs (FLAG, the tag used for NiNTA purification, AviTag)
Consider B1, for which the Kd came out at 476 nM.
